Measurements reported in the RNAGym collection of RNA variant scans (doi:10.1073/pnas.2313332121).
This sample is rich in variants without activity.

B1: TPR 5TU (parent)
chain: GGAUCUUCUCGAUCUAACAAAAAAGACAAAUCUGCCACAAAGCUUGAGAGCAUCUUCGGAUGCAGAGGCGGCAGCCUUCGGUGGCGCGAUAGCGCCAACGUUCUCAACUAUGACACGCAAAACGCGUGCUCCGUUGAAUGGAGUUUAUCAUG

Variants of: B1
Assay: polymerase ribozyme fitness, log enrichment relative to wild type (log ratio); higher = more active; in vitro selection for triplet polymerase activity
Procedure, shortened: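 Fitness measures genotype enrichment against wild-type enrichment on a logarithmic scale, with inverse-variance-weighted averaging of replicates. The logarithm is base 2, and genotypes were kept only with ≥10 input reads and ≥1 read per output in Illumina sequencing. The sequenced libraries came from one triplicate in vitro selection round, including frozen incubation at −7 °C, of PCR-built, transcribed mutant libraries of each subunit of a heterodimeric triplet polymerase ribozyme.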
With U7C A20U C96A C103U U109C G152U the “polymerase ribozyme fitness (log ratio)” value was -3.42.
In the case of U7C A21C A24C G62C C76A G133C, the “polymerase ribozyme fitness (log ratio)” value is reported as at most -4.2.
For U7C A23U G25U A37G C93G, the “polymerase ribozyme fitness (log ratio)” value was at most -4.2.
For U7C A24G G94A, the “polymerase ribozyme fitness (log ratio)” value was at most -4.2.
With U7C A24G U31A C43U A52C U55C C75G C85A U90G G133A the “polymerase ribozyme fitness (log ratio)” value was at most -4.2.
With U7C A24U A52U G71A U78A G94A the “polymerase ribozyme fitness (log ratio)” value was at most -4.2.
In the case of U7C A30C U31A U45A C125U U135C, the “polymerase ribozyme fitness (log ratio)” value is reported as at most -4.2.
In the case of U7C A30U A49G G68C C85G A107U A110C U146G, the “polymerase ribozyme fitness (log ratio)” value is reported as at most -4.2.
With U7C A40G G42U C85A G112C C123A the “polymerase ribozyme fitness (log ratio)” value was at most -4.2.
With U7C A41U G42A U53G C76G G84A C95A C131G U135A the “polymerase ribozyme fitness (log ratio)” value was at most -4.2.
For U7C A47C G94C G100U U134A, the “polymerase ribozyme fitness (log ratio)” value was at most -4.2.
With U7C A49C G59A C87A G117C the “polymerase ribozyme fitness (log ratio)” value was at most -4.2.
For U7C C8A A22U C32G C43U G46A C93G G94U U101G U145A, the “polymerase ribozyme fitness (log ratio)” value was at most -4.2.
With U7C C10U C76A U104C the “polymerase ribozyme fitness (log ratio)” value was at most -4.2.
In the case of U7C C14A G71A U135C, the “polymerase ribozyme fitness (log ratio)” value is reported as at most -4.2.
With U7C C14G C27A G80C C85G C87A A120U A121G G141U the “polymerase ribozyme fitness (log ratio)” value was at most -4.2.
In the case of U7C C18G C43G G48A G58C C63U C76G, the “polymerase ribozyme fitness (log ratio)” value is reported as at most -4.2.
With U7C C18G G86A U148A the “polymerase ribozyme fitness (log ratio)” value was -4.2.
In the case of U7C C18G G94A G117C, the “polymerase ribozyme fitness (log ratio)” value is reported as -3.67.
In the case of U7C C18U U31A G81A G84U, the “polymerase ribozyme fitness (log ratio)” value is reported as -3.99.
For U7C C35A G59U C93A A97C U101G, the “polymerase ribozyme fitness (log ratio)” value was at most -4.2.
For U7C C35G U44C G84U A115G, the “polymerase ribozyme fitness (log ratio)” value was at most -4.2.
In the case of U7C C35U, the “polymerase ribozyme fitness (log ratio)” value is reported as -2.29.
For U7C C35U C85A C105U U109G G141A G143U U146A A147U U148C, the “polymerase ribozyme fitness (log ratio)” value was at most -4.2.
For U7C G25U A66C C87U A115G, the “polymerase ribozyme fitness (log ratio)” value was at most -4.2.
For U7C G34U A106U G141C, the “polymerase ribozyme fitness (log ratio)” value was at most -4.2.
For U7C G42A C54A G71A C75U A91U C95A C125G U139G, the “polymerase ribozyme fitness (log ratio)” value was at most -4.2.
For U7C G42U C43G C72U U78A A89G, the “polymerase ribozyme fitness (log ratio)” value was at most -4.2.
For U7C G46A A52C C87A, the “polymerase ribozyme fitness (log ratio)” value was at most -4.2.
With U7C G50A G84U C87A U151A the “polymerase ribozyme fitness (log ratio)” value was at most -4.2.
In the case of U7C G68C C125A, the “polymerase ribozyme fitness (log ratio)” value is reported as at most -4.2.
With U7C G86U the “polymerase ribozyme fitness (log ratio)” value was -3.7.
For U7C U9C C35G U56A U61G C96G G136U, the “polymerase ribozyme fitness (log ratio)” value was at most -4.2.
With U7C U9G G68U C85G C114G A115G C116G A120U the “polymerase ribozyme fitness (log ratio)” value was at most -4.2.
In the case of U7C U33G U61G C96G C105U, the “polymerase ribozyme fitness (log ratio)” value is reported as at most -4.2.
With U7G A12C U61A C93U G124C the “polymerase ribozyme fitness (log ratio)” value was at most -4.2.
In the case of U7G A20C A40C G48U A64U A89U G92U U101C C132A, the “polymerase ribozyme fitness (log ratio)” value is reported as at most -4.2.
For U7G A20G A30U C43A G46C A47U C57A G117U, the “polymerase ribozyme fitness (log ratio)” value was at most -4.2.
In the case of U7G A20G G42C A52U C57A C72A A89U A97U, the “polymerase ribozyme fitness (log ratio)” value is reported as at most -4.2.
In the case of U7G A21C C32A A49C U53C C69U A142C, the “polymerase ribozyme fitness (log ratio)” value is reported as at most -4.2.
With U7G A21U A24C G58A the “polymerase ribozyme fitness (log ratio)” value was at most -4.2.
In the case of U7G A23G, the “polymerase ribozyme fitness (log ratio)” value is reported as at most -4.2.
In the case of U7G A23U C85U G152U, the “polymerase ribozyme fitness (log ratio)” value is reported as at most -4.2.
For U7G A24G A26U A52C G59C A60G C93U C129A, the “polymerase ribozyme fitness (log ratio)” value was at most -4.2.
For U7G A26C A47G G83U, the “polymerase ribozyme fitness (log ratio)” value was at most -4.2.
For U7G A26C C57A U61G, the “polymerase ribozyme fitness (log ratio)” value was at most -4.2.
With U7G A29U U44A U61A G88C the “polymerase ribozyme fitness (log ratio)” value was at most -4.2.
In the case of U7G A30U C51U G62A A91U G92U U111G, the “polymerase ribozyme fitness (log ratio)” value is reported as at most -4.2.
For U7G A40G C51A G84A C87U A98C A150C, the “polymerase ribozyme fitness (log ratio)” value was at most -4.2.
In the case of U7G A40U G94U G141U, the “polymerase ribozyme fitness (log ratio)” value is reported as at most -4.2.
With U7G A41C C85U A98G C99U C108A G112C G136C the “polymerase ribozyme fitness (log ratio)” value was at most -4.2.
For U7G A49G C93G A97U C108U, the “polymerase ribozyme fitness (log ratio)” value was at most -4.2.
For U7G A52C U53A A113G A122G A138G, the “polymerase ribozyme fitness (log ratio)” value was at most -4.2.
In the case of U7G C8U A12U A39U A47U G59C G65U G84A C118A G124A U139A, the “polymerase ribozyme fitness (log ratio)” value is reported as at most -4.2.
With U7G C8U A22C A24C A28U C63U A89U C95U G117U U139G the “polymerase ribozyme fitness (log ratio)” value was at most -4.2.
In the case of U7G C8U U15G A17U C38A G48U G92C, the “polymerase ribozyme fitness (log ratio)” value is reported as at most -4.2.
With U7G C10U A21G A107G A115U the “polymerase ribozyme fitness (log ratio)” value was at most -4.2.
In the case of U7G C14U U90C G143A, the “polymerase ribozyme fitness (log ratio)” value is reported as at most -4.2.
With U7G C18G C27G A28G A37C G59U G92C U101G the “polymerase ribozyme fitness (log ratio)” value was at most -4.2.
With U7G C18U C27A C36A C76G G92A U134C the “polymerase ribozyme fitness (log ratio)” value was at most -4.2.
With U7G C27G C32G C76G A106C the “polymerase ribozyme fitness (log ratio)” value was at most -4.2.
In the case of U7G C32U C54G C96U, the “polymerase ribozyme fitness (log ratio)” value is reported as at most -4.2.
In the case of U7G C35A A47C C105G A107G, the “polymerase ribozyme fitness (log ratio)” value is reported as at most -4.2.
With U7G C35U G42U G84A the “polymerase ribozyme fitness (log ratio)” value was at most -4.2.
In the case of U7G C63G C76G C93G A97U C99G A106U, the “polymerase ribozyme fitness (log ratio)” value is reported as at most -4.2.
With U7G C69A A91C A107U U144C A150G the “polymerase ribozyme fitness (log ratio)” value was at most -4.2.
With U7G C75A G84A G94U A106U A120C the “polymerase ribozyme fitness (log ratio)” value was at most -4.2.
For U7G C76A C85G C95A A121U, the “polymerase ribozyme fitness (log ratio)” value was at most -4.2.
In the case of U7G C87A, the “polymerase ribozyme fitness (log ratio)” value is reported as at most -4.2.
In the case of U7G C87G C114G, the “polymerase ribozyme fitness (log ratio)” value is reported as at most -4.2.
With U7G G25C A60G C93U C123U the “polymerase ribozyme fitness (log ratio)” value was at most -4.2.
With U7G G25C C54U C69G C87G C99A G140A U146A A150G the “polymerase ribozyme fitness (log ratio)” value was at most -4.2.
With U7G G34C U56A G59A the “polymerase ribozyme fitness (log ratio)” value was at most -4.2.
With U7G G50C G58U C63U C76A G92A C149G the “polymerase ribozyme fitness (log ratio)” value was at most -4.2.
For U7G G83A A91U C131U, the “polymerase ribozyme fitness (log ratio)” value was -3.4.
In the case of U7G U9A A16G A20G A21U U31G A52C U56A G86U U134C, the “polymerase ribozyme fitness (log ratio)” value is reported as at most -4.2.
In the case of U7G U9C A20C U45C A73G U77C G92A C95A U102C C116G, the “polymerase ribozyme fitness (log ratio)” value is reported as at most -4.2.
In the case of U7G U13A A17U A20C G50A A122C G141U U151G, the “polymerase ribozyme fitness (log ratio)” value is reported as at most -4.2.
For U7G U15A G58U G70C A91G, the “polymerase ribozyme fitness (log ratio)” value was at most -4.2.
For U7G U44A A49C U55A C96U A106G A122G G141U, the “polymerase ribozyme fitness (log ratio)” value was at most -4.2.
With U7G U45A C57U C76A G83A G84A the “polymerase ribozyme fitness (log ratio)” value was at most -4.2.
In the case of U7G U45A G50A C57G G58C A73G, the “polymerase ribozyme fitness (log ratio)” value is reported as at most -4.2.
For U7G U53G C87G A89G, the “polymerase ribozyme fitness (log ratio)” value was at most -4.2.
With U7G U55A G62C G92A the “polymerase ribozyme fitness (log ratio)” value was at most -4.2.
